Here are results for 58 compounds from paper PMC4336329 (PLoS ONE, 2015).

The whole screen tested about 310,000 compounds, of which about 2,200 (0.71%) showed an effect of 50% or more. Effects have a minus sign here. The list shows a part of the results.

In the experiment the target is human ether-à-go-go-related gene (hERG) potassium channel (human, UniProt Q12809). Briefly: primary screen, population patch clamp on CHO cells stably expressing hERG.
Chain of human ether-à-go-go-related gene (hERG) potassium channel (Q12809 whole entry, looked up): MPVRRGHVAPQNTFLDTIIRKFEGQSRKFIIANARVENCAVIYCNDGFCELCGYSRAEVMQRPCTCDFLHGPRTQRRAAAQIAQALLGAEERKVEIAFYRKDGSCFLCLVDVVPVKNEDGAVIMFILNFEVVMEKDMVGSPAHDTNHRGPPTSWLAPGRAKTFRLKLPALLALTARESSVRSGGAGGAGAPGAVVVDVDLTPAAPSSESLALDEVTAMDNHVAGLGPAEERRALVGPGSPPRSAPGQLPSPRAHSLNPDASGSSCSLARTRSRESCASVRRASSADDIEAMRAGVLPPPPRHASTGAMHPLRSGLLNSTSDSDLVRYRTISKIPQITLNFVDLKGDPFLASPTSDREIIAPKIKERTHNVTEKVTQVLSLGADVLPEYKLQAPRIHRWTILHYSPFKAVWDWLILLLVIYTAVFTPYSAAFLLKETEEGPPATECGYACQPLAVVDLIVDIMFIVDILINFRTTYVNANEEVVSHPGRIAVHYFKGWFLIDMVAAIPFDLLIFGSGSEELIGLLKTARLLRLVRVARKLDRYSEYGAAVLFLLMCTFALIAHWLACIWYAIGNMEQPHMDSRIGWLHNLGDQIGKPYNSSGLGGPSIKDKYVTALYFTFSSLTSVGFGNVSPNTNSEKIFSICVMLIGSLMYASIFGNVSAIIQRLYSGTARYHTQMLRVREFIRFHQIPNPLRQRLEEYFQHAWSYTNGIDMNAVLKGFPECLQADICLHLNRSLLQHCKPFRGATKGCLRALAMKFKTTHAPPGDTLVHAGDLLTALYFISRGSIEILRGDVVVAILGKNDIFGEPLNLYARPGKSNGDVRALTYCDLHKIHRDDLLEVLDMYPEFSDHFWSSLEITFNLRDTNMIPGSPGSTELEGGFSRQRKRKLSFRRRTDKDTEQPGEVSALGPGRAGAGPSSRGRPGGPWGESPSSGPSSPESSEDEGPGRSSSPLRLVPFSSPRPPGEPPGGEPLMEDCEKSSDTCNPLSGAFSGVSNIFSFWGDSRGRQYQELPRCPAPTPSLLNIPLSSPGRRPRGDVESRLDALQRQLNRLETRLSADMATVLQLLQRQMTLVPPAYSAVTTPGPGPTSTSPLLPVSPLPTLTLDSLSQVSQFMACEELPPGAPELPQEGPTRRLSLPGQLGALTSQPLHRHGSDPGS
For the compound `COC(=O)c1cc2sc(Cl)cc2n1CC(=O)Nc1ccc(OC)c(OC)c1OC`, the “hERG current change (%, negative = inhibition) at 1uM” value is on record as -58.5%.

As to `O=C(CCNC(=O)c1ccccc1)Nc1cccnc1`, the “hERG current change (%, negative = inhibition) at 1uM” value is on record as 16.3%.

As for `O=C(O)/C=C/c1ccc(S(=O)(=O)N2CCN(CCN3C(=O)C4C5C=CC(C5)C4C3=O)CC2)cc1` (stereo not shown), the “hERG current change (%, negative = inhibition) at 1uM” value was determined as 13.9%.

`CCN(CC)CCN(C(=O)CCOc1ccccc1)c1nc2ccc(F)cc2s1.Cl`: the “hERG current change (%, negative = inhibition) at 1uM” value came out at 2.28%.

On to `CN(C)c1ccc(-c2nnc(-c3cccs3)o2)cc1`, for which the “hERG current change (%, negative = inhibition) at 1uM” value was determined as 17.6%.

In the case of `CCCCn1c(N)c(N(CC)C(=O)CSc2nnnn2-c2cc(C)ccc2C)c(=O)[nH]c1=O`, the “hERG current change (%, negative = inhibition) at 1uM” value is on record as 1.06%.

In the case of `O=C(OCC(=O)C12CC3CC(CC(C3)C1)C2)c1ccc(O)cc1O`, the “hERG current change (%, negative = inhibition) at 1uM” value was found to be 10.7%.

As for `CC(C)(CNC(=O)c1sc2cc(Cl)ccc2c1Cl)N1CCOCC1`, the “hERG current change (%, negative = inhibition) at 1uM” value is 7.23%.

On to `Cc1ccccc1NC(=S)NC(=O)CCc1ccccc1`, for which the “hERG current change (%, negative = inhibition) at 1uM” value is reported as -0.0976%.

For the compound `CCC(Oc1ccccc1)C(=O)NCCCN1CCOCC1` (stereo not shown), the “hERG current change (%, negative = inhibition) at 1uM” value was determined as 0.722%.

As for `COc1ccccc1/C=C/C(=O)c1ccc(Cl)cc1`, the “hERG current change (%, negative = inhibition) at 1uM” value is on record as 1.15%.

Take `COc1ccc(-c2c[n+]3c(n2-c2ccccc2)SCC3)cc1.[Br-]`: the “hERG current change (%, negative = inhibition) at 1uM” value is -6.21%.

Regarding `CC(OC(=O)CCN=C1NS(=O)(=O)c2ccccc21)C(=O)Nc1ccc(F)cc1Cl` (stereo not shown), the “hERG current change (%, negative = inhibition) at 1uM” value is listed as 7.57%.

`O=C(CN1CCN(C(=O)c2ccco2)CC1)Nc1cc(C(F)(F)F)ccc1Cl`: the “hERG current change (%, negative = inhibition) at 1uM” value was -26.1%.

Consider `CC1=C(C(=O)Nc2ccccn2)C(c2ccc(Cl)cc2)NC(=S)N1` (stereo not shown), for which the “hERG current change (%, negative = inhibition) at 1uM” value was found to be 10.5%.

Regarding `CC(=O)N1CCCc2cc(S(=O)(=O)N3CCCC(C(=O)NCc4ccc(C)cc4)C3)ccc21` (stereo not shown), the “hERG current change (%, negative = inhibition) at 1uM” value turned out to be 10%.

Take `C[C@H](NC(=O)c1ccccc1Cl)C(=O)NCCc1ccc(S(N)(=O)=O)cc1`: the “hERG current change (%, negative = inhibition) at 1uM” value is given as 3.8%.

For the compound `O=C(c1ccco1)N1CCN(S(=O)(=O)c2cc(Cl)ccc2Cl)CC1`, the “hERG current change (%, negative = inhibition) at 1uM” value was determined as 5.88%.

Take `CC(C)n1nnnc1SCC(=O)N1CCOCC1`: the “hERG current change (%, negative = inhibition) at 1uM” value was determined as 19%.

Take `Nc1nccnc1C(=O)OCc1nc2sc3c(c2c(=O)[nH]1)CCCC3`: the “hERG current change (%, negative = inhibition) at 1uM” value is 11.3%.

In the case of `CCc1nnc(NC(=O)COC(=O)CN2C(=O)c3ccccc3C2=O)s1`, the “hERG current change (%, negative = inhibition) at 1uM” value amounted to 9.74%.

As for `Cc1ccc(NC(=O)CN(C)C(=O)c2nn(C)c(=O)c3ccccc23)cc1`, the “hERG current change (%, negative = inhibition) at 1uM” value is reported as -13.2%.

For `CC(=O)Nc1cccc(NC(=O)CCN2C(=O)c3ccccc3S2(=O)=O)c1`, the “hERG current change (%, negative = inhibition) at 1uM” value was 6.03%.

On to `COc1ccc(NC(=S)N2CCC(NC(=O)c3ccc(OC)cc3)CC2)cc1`, for which the “hERG current change (%, negative = inhibition) at 1uM” value was 11.3%.

With `Cn1cccc1-c1nc2ccccc2n1Cc1ccccc1`, the “hERG current change (%, negative = inhibition) at 1uM” value is recorded as 1.48%.

On to `COc1cc(SC)ccc1C(=O)NCC1CCCO1` (stereo not shown), for which the “hERG current change (%, negative = inhibition) at 1uM” value is on record as 7.77%.

`CCOC(=O)c1c(NC(=O)CSc2ncnc3[nH]ncc23)sc2c1CCC(C)C2` (stereo not shown): the “hERG current change (%, negative = inhibition) at 1uM” value came out at 4.51%.

`CCOC(=O)C(C)Sc1ncc(OC)c(=O)[nH]1` (stereo not shown): the “hERG current change (%, negative = inhibition) at 1uM” value came to 12.3%.

`O=c1nc(-c2ccccc2)c2cc(Cl)ccc2[nH]1`: the “hERG current change (%, negative = inhibition) at 1uM” value was -4.6%.

As for `Cc1ccccc1Nc1ncc(C#N)c(N)n1`, the “hERG current change (%, negative = inhibition) at 1uM” value came to 13.1%.

In the case of `Cc1ccc(C(=O)OC(C)C(=O)NC(C)CCc2ccccc2)o1` (stereo not shown), the “hERG current change (%, negative = inhibition) at 1uM” value is 8.71%.

In the case of `CCOC(=O)C1CCCN(S(=O)(=O)c2c(C)c(C)cc(C)c2C)C1` (stereo not shown), the “hERG current change (%, negative = inhibition) at 1uM” value is listed as 1.87%.

With `CCc1ccc(N2CC(C(=O)NC3CCCCC3C)CC2=O)cc1` (stereo not shown), the “hERG current change (%, negative = inhibition) at 1uM” value is recorded as 12.1%.

`COC(=O)CCCC1=CC2=CC(=O)C(C)(OC(=O)c3cccs3)C(=O)C2=CN1CCc1c[nH]c2ccccc12` (stereo not shown): the “hERG current change (%, negative = inhibition) at 1uM” value is reported as 19.5%.

On to `CC(=O)Nc1ccc(NC(=O)CSc2nnnn2-c2ccccc2F)cc1`, for which the “hERG current change (%, negative = inhibition) at 1uM” value was 12.7%.

As for `Cc1cccc(NC(=O)CCn2nc(C)cc2C)c1`, the “hERG current change (%, negative = inhibition) at 1uM” value was found to be 8.58%.

Take `CCOC(=O)c1cnn(-c2nc3c(C)cccc3s2)c1C`: the “hERG current change (%, negative = inhibition) at 1uM” value is recorded as 17%.

For `Cc1ccc(NCC(=O)NNC2=NCCC2)c(C)c1`, the “hERG current change (%, negative = inhibition) at 1uM” value turned out to be 7.03%.

As to `CCOC(=O)N1CCN(C(=O)c2cnn3c(C(F)(F)F)cc(-c4cccs4)nc23)CC1`, the “hERG current change (%, negative = inhibition) at 1uM” value stood at 4.07%.

Consider `CCc1ccc(CC(=S)N2CCOCC2)cc1`, for which the “hERG current change (%, negative = inhibition) at 1uM” value is reported as 7.97%.

Regarding `N#Cc1c(N)nc2c(c1-c1ccccc1)CCC2`, the “hERG current change (%, negative = inhibition) at 1uM” value is 15.6%.

Take `COC(=O)c1c(-c2cccc(C)c2)csc1NC(=O)C1CCCO1` (stereo not shown): the “hERG current change (%, negative = inhibition) at 1uM” value is reported as 9.66%.

In the case of `C/C(=N/NC(=O)CN1CCN(Cc2ccccc2Cl)CC1)c1cccs1`, the “hERG current change (%, negative = inhibition) at 1uM” value was -5.01%.

With `CCc1ccc(N2CC(C(=O)OCC(=O)c3c(N)n(CC(C)C)c(=O)n(C)c3=O)CC2=O)cc1` (stereo not shown), the “hERG current change (%, negative = inhibition) at 1uM” value came out at 6.45%.

Take `COc1cccc(C(CC(=O)O)NS(=O)(=O)c2ccc3c(c2)N(C(C)=O)CC(C)O3)c1` (stereo not shown): the “hERG current change (%, negative = inhibition) at 1uM” value was found to be 16.3%.

As to `COc1ccc(C(=O)c2ccc(N3CCOCC3)c([N+](=O)[O-])c2)cc1`, the “hERG current change (%, negative = inhibition) at 1uM” value is reported as 5.42%.

On to `COc1ccc(/C=C/C(=O)N2c3ccccc3Sc3ccc(C(F)(F)F)cc32)cc1`, for which the “hERG current change (%, negative = inhibition) at 1uM” value was -0.476%.

With `CCOc1ccccc1C(=O)NCC(=O)Nc1ncccc1C`, the “hERG current change (%, negative = inhibition) at 1uM” value worked out at 20.9%.

`Cc1c(N=Cc2ccco2)c(=O)n(-c2ccccc2)n1C`: the “hERG current change (%, negative = inhibition) at 1uM” value is 5.78%.

Regarding `O=C(C[n+]1ccccc1)NNc1ccccc1.[Cl-]`, the “hERG current change (%, negative = inhibition) at 1uM” value was 8.53%.

Take `CCOP(=S)(NN(Cc1ccccc1)C(=O)c1ccccc1)OCC`: the “hERG current change (%, negative = inhibition) at 1uM” value turned out to be 11.9%.

As to `C=CCN1C(=O)C2(OCCCO2)c2cccc(C)c21`, the “hERG current change (%, negative = inhibition) at 1uM” value was 8.84%.

Turning to `Cc1ccc2sc(N(CCCN(C)C)C(=O)c3ccc(S(=O)(=O)N4CCOCC4)cc3)nc2c1C.Cl`, the “hERG current change (%, negative = inhibition) at 1uM” value is given as -1.04%.

Consider `CCOC(=O)C1=C(C)NC(C)=C(C(=O)OCC)C1c1ccc(O)cc1`, for which the “hERG current change (%, negative = inhibition) at 1uM” value amounted to 14.7%.

As to `COc1ccccc1CNC(=O)C1CCN(S(=O)(=O)c2ccc3c(c2)OCCO3)CC1`, the “hERG current change (%, negative = inhibition) at 1uM” value was determined as 10.7%.

On to `CCOC(=O)n1c(=O)n(C)c2ccc(Br)cc21`, for which the “hERG current change (%, negative = inhibition) at 1uM” value was found to be 7.05%.

As for `O=C(c1ccc2ccccc2n1)N1CCN(c2ccccc2)CC1`, the “hERG current change (%, negative = inhibition) at 1uM” value is given as 11%.

Take `COc1cccc(NC(=O)N2CCN(c3nc(-c4cccc(OC)c4)cs3)CC2)c1`: the “hERG current change (%, negative = inhibition) at 1uM” value worked out at 10.4%.
